Data reported in PubChem BioAssay AID1461 (National Center for Advancing Translational Sciences (NCATS), 2008).
In all, about 220,000 compounds went through this assay and about 2,300 (1%) were called active. Inconclusive means that the source gave no clear call. Such entries were picked first, then a sample of the others. Calls come from the whole dose curve; as a rule, active = well fitted inhibition curve with a large enough effect; inconclusive = small, poorly fitted or top-dose-only effect, or effect the other way; inactive = no such curve, though single readings can be large or run the other way. Potencies of inconclusive entries are left out as doubtful fits.

What follows are molecules tested against Neuropeptide S receptor (Homo sapiens) (UniProt Q6W5P4) (assay: qHTS Assay for Antagonists of the Neuropeptide S Receptor: cAMP Signal Transduction). Conditions: CHO-NPSR cells, cAMP TR-FRET, antagonist mode; activity change, negative = inhibition: at 38.3 µM (top of the series) unless noted.
Chain of UniProt Q6W5P4 (Q6W5P4 whole entry, looked up): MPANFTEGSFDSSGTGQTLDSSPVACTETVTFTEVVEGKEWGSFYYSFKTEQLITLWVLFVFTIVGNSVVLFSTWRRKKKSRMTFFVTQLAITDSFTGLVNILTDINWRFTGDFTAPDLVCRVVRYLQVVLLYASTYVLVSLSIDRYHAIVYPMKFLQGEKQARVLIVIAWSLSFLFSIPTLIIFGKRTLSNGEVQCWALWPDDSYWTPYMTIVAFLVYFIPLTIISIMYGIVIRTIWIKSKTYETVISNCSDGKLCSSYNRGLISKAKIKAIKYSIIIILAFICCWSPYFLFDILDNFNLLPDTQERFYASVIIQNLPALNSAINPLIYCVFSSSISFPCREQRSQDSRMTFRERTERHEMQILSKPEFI
% is set by controls: 0 for no effect and ±100 for the full control effect; potency is the fitted concentration of half-maximal effect; tags give direction and shape of the fitted curve.
Note: nearly all actives have a fitted effect of over 50% in size.

Row | Structure (SMILES) | Potency | activity change, negative = inhibition
1 | CCCCn1c(SC(C)C(=O)c2ccc(OC)cc2)nc2cc(S(N)(=O)=O)ccc21 (centres undefined) | inconclusive [inhibitor, single point] | –
2 | CCCc1nc2c(=O)n(C)c(=O)nc-2n(C)n1 | active: 7.94 µM | –
3 | CC1CCCC(NC(=O)COC(=O)c2ccccc2NC(=O)c2ccco2)C1C (centres undefined) | inconclusive [inhibitor, partial curve] | –
4 | Cc1ccc(N=C2NC(=O)/C(=C/c3cccn3C)S2)c(C)c1 | inconclusive [activator, single point] | –
5 | O=C(CSc1nnc(-c2ccc(F)cc2)o1)c1ccc2c(c1)OCCO2 | – | inactive: -0.251% [at 46.1 µM]
6 | Cc1cc(C)c(S(=O)(=O)N2CCCCC2)cc1N(C)S(=O)(=O)c1ccc(Cl)cc1 | – | inactive: -18.9% [at 46.1 µM]
7 | O=C(NCc1ccco1)C12CN(Cc3ccccc3)CC1C(c1cccc([N+](=O)[O-])c1)=NO2 (centres undefined) | – | inactive: -21.9% [at 46.1 µM]
8 | CCOC(=O)c1c(NC(=O)c2cc(-c3ccc(O)cc3)on2)sc(C(C)=O)c1C | – | inactive: -0.497%
9 | C=CCSc1nc2c(c(C3CC=CCC3)c1C#N)CCC2 (centres undefined) | inconclusive [inhibitor, single point] | –
10 | CCOc1ccc(NCc2cc3c(C(C)(C)C)nn(-c4ccccc4)c3[nH]c2=O)cc1 | inconclusive [inhibitor, single point] | –
11 | O=C(NC1=NCCS1)c1ccc(Br)s1 | – | inactive: -2.69% [at 46.1 µM]
12 | Cc1ccc2nc(-c3ccc(SCC(=O)Nc4nnc(C)s4)nc3)[nH]c2c1 | inconclusive [inhibitor, single point] | –
13 | Cc1cccc(C(C)C)c1NC(=O)C1CN(S(=O)(=O)c2ccccc2)CCN1S(=O)(=O)c1ccccc1 (centres undefined) | inconclusive [inhibitor, partial curve] | –
14 | Nc1nc(CSc2nnnn2-c2ccc(Cl)cc2)nc(N2CCOCC2)n1 | – | inactive: -5.51% [at 46.1 µM]
15 | c1ccc(-c2nc(-n3ccnc3)nc(-n3ccnc3)n2)cc1 | inconclusive [activator, single point] | –
16 | CCS(=O)(=O)n1nc(-c2ccccc2)nc1SCc1ccccc1 | inconclusive [inhibitor, single point] | –
17 | COc1ccccc1NC(=S)NCCSc1ccc(C)cc1 | – | inactive: -5.08% [at 46.1 µM]
18 | Fc1ccc(N2N=C(c3cccs3)CC2c2ccco2)c(F)c1 (centres undefined) | inconclusive [inhibitor, single point] | –
19 | OC1(c2cccc(C(F)(F)F)c2)CCN(c2ncnc3c2[nH]c2ccc(F)cc23)CC1 | active: 12.6 µM | –
20 | COc1ccc(CN(C(=O)c2nsc(Cl)c2Cl)C(C(=O)NC2CCCC2)c2ccc(C)cc2)cc1 (centres undefined) | inconclusive [inhibitor, single point] | –
21 | Cc1[nH]n(-c2ccccc2)c(=O)c1CCOC(=O)c1cccc(C(F)(F)F)c1 | – | inactive: -18.3% [at 46.1 µM]
22 | COCCn1c(SCC(=O)N2CCCCC2)nc2cccnc21 | inconclusive [inhibitor, single point] | –
23 | Cc1nnc2n1NC(c1ccc(Cl)cc1)C(C(=O)N(C)C1CCCCC1)S2 (centres undefined) | – | inactive: -2.36% [at 46.1 µM]
24 | CC(C)(C=O)Cc1cc(C(C)(C)C)c(O)c(C(C)(C)C)c1 | inconclusive [inhibitor, partial curve] | –
25 | O=C(CCCN1C(=O)c2ccccc2C1=O)OC1CSCC1NC(=O)c1ccccc1 (centres undefined) | inconclusive [inhibitor, single point] | –

Row | Structure (SMILES) | Potency | activity change, negative = inhibition
26 | Clc1nnc(NN=C2CCCC2)c2ccccc12 | – | inactive: -4.97%
27 | CCOC(=O)c1c(C=O)c(C)n(Cc2ccc(Cl)cc2)c1C | inconclusive [inhibitor, single point] | –
28 | COc1ccc(NC2=C(NCCO)C(=O)c3ccccc3C2=O)cc1 | – | inactive: -30.5%
29 | Cc1ccc(S(=O)(=O)Nc2ccnc(-c3cccnc3)n2)cc1 | – | inactive: -23.6%
30 | CCOC(=O)N1CCC(N2C(=O)c3ccccc3C2Nc2cc(C)cc(C)c2)CC1 (centres undefined) | inconclusive [inhibitor, single point] | –
31 | Cc1cccc(N2CCN(C(=O)c3cccc(N4C(=O)C5CC=CC(C)C5C4=O)c3)CC2)c1C (centres undefined) | inconclusive [inhibitor, single point] | –
32 | CC(C)Cc1nc(N2CCN(C(=O)C(C)C)CC2)c(C#N)c2c1CCC2 | inconclusive [inhibitor, partial curve] | –
33 | O=c1[nH]c2cc3c(cc2cc1CN(CC1CCCO1)S(=O)(=O)c1ccc(Cl)cc1)OCCO3 (centres undefined) | inconclusive [activator, single point] | –
34 | CC1CCCN(C(=S)Nc2ccc(Nc3ccccc3)cc2)C1 (centres undefined) | – | inactive: 16.3%
35 | CC1CCN(C(=S)c2cn(Cc3ccc(F)cc3)c3ccccc23)CC1 | inconclusive [inhibitor, partial curve] | –
36 | COc1cc(CNC2CCCC2)cc(Cl)c1OCc1ccc(F)cc1 | – | inactive: 0.51% [at 46.1 µM]
37 | COc1cccc2cc(C(C)N(CCCN3CCOCC3)C(=S)Nc3cccc(C)c3C)oc12 (centres undefined) | inconclusive [inhibitor, single point] | –
38 | Cc1ccc(C(C)C)c(OCCNC(=S)Nc2cccc3ccccc23)c1 | inconclusive [inhibitor, single point] | –
39 | Cc1ccc2c3c([nH]c2c1C)-c1nonc1CC3 | inconclusive [activator, single point] | –
40 | N#Cc1c(NCCN)nc(-c2ccco2)c2c1CCCC2 | – | inactive: 10.3% [at 46.1 µM]
41 | COC(=O)CN(C)C1CC(=O)N(c2ccc(Cl)cc2)C1=O (centres undefined) | – | inactive: -6.33% [at 46.1 µM]
42 | N#Cc1cc(Sc2ccccn2)c(Sc2ccccn2)cc1C#N | inconclusive [inhibitor, single point] | –
43 | Cc1cc(C)nc(NS(=O)(=O)c2ccc(N/C=C/C(=O)c3ccc(Cl)c(Cl)c3)cc2)n1 | – | inactive: -39.9%
44 | CN(CC1COc2ccccc2O1)C(=S)NC1CCCCC1 (centres undefined) | – | inactive: 13.3%
45 | COc1cccc2cc(C(=O)NCCC3=CCCCC3)c(=O)oc12 | – | inactive: -3.37%
46 | CCCCN(CC)S(=O)(=O)c1ccc(C(=O)N=c2sc3cc(NC(C)=O)ccc3n2C)cc1 | inconclusive [activator, single point] | –
47 | Cc1ccc(OC/C(O)=C(\C#N)c2nc3ccccc3s2)cc1 | – | inactive: -1.93%
48 | O=C(CN(Cc1ccccc1)S(=O)(=O)c1ccc(Br)cc1)NCc1ccco1 | inconclusive [inhibitor, single point] | –
49 | CN1CCN(CC/C=C2/c3ccccc3Sc3ccc(S(=O)(=O)N(C)C)cc32)CC1 | inconclusive [inhibitor, single point] | –
50 | Cc1nc(-c2ccccc2)c(-c2ccccc2)[nH]1 | – | inactive: 3.39%

Row | Structure (SMILES) | Potency | activity change, negative = inhibition
51 | CCC(=O)c1cc2c(cc1NC(=O)c1ccccc1)OCCO2 | inconclusive [inhibitor, single point] | –
52 | COc1cc(CNc2ccc3[nH]c(=O)[nH]c3c2)ccc1OCC(=O)NC(C)(C)C | inconclusive [inhibitor, partial curve] | –
53 | CCc1cccc(NC(=O)Cn2ncn3c(cc4ccccc43)c2=O)c1 | – | inactive: 6.82% [at 46.1 µM]
54 | CCOC(=O)c1c(NC(=O)CCl)sc(C(=O)N(CC)CC)c1C | inconclusive [inhibitor, single point] | –
55 | Cc1ccc(C(=O)N/C(=C\c2ccccc2F)c2nc(=S)[nH][nH]2)cc1 | inconclusive [inhibitor, single point] | –
56 | O=C(CCCCCn1c(=S)[nH]c2ccc(N3CCOCC3)cc2c1=O)NCc1ccc(Cl)cc1 | active: 10 µM | –
57 | CCOC(=O)c1sc(NC(=O)CCSC)nc1C | inconclusive [inhibitor, single point] | –
58 | Cc1ccccc1NC(=O)CSc1nc2c(c(-c3ccco3)c1C#N)CCCC2 | active: 10 µM | –
59 | Cc1[nH]c(=S)[nH]c(=O)c1Cc1ccc(OCC(C)C)cc1 | inconclusive [activator, single point] | –
60 | Cc1onc(-c2c(Cl)cccc2Cl)c1C(=O)Nc1nc(C(C)(C)C)cs1 | inconclusive [activator, single point] | –
61 | COc1cc(/C=C2\SC(=S)N(Nc3ncc(C(F)(F)F)cc3Cl)C2=O)ccc1O | inconclusive [inhibitor, single point] | –
62 | COc1ccc(/C=C/C(=O)c2cc(Cl)ccc2O)c(OC)c1 | – | inactive: -41.1%
63 | Cc1cc(C(=O)CC#N)c(C)n1-c1ccc(OC(F)F)cc1 | – | inactive: -6.31% [at 46.1 µM]
64 | O=c1[nH]c2ccccc2n2c(=S)[nH]nc12 | inconclusive [activator, partial curve] | –
65 | Cn1c2ccccc2c(=O)c2c(=O)n(-c3ccccc3)c(-c3ccc(C(C)(C)C)cc3)nc21 | inconclusive [activator, partial curve] | –
66 | Cn1nnnc1SCC(=O)Nc1ccccc1-c1ccccc1 | – | inactive: -16.4% [at 46.1 µM]
67 | CC(C)CCN(CCC(C)C)C(CO)(CO)CO | – | inactive: -11.8%
68 | Cc1ccc(N2C(=O)CSC2=S)cc1C | – | inactive: 2.27%
69 | Cc1sc2ncnc(Sc3nnnn3-c3ccc(Cl)cc3)c2c1C | inconclusive [inhibitor, single point] | –
70 | CC1CCCN(C(=S)Nc2ccc(F)cc2)C1 (centres undefined) | – | inactive: -8.93%
71 | COc1ccc(/C(O)=C2\C(=O)C(=O)N(CC3CCCO3)C2c2cc(OC)ccc2OC)cc1 (centres undefined) | inconclusive [inhibitor, partial curve, poor fit] | –
72 | COc1ccc(NC(=O)CSc2ccccc2)cn1 | inconclusive [inhibitor, single point] | –
73 | Cc1ccc(C2NC(c3ccc(C)cc3)C(C)C(=O)C2C)cc1 (centres undefined) | inconclusive [inhibitor, single point] | –
74 | COc1ccc(C2NC3=C(CCC3)C3(C#N)C4(N=C(N)C23C#N)OCCO4)cc1 (centres undefined) | inconclusive [inhibitor, full curve, poor fit] | –
